Values joined by “and” are separate entries in the source; they are usually repeats but may differ in a detail not shown here. Equal entries are not always repeated.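 All cell lines were grown in 96-well plates and treated with compound for 48 hours. GI50 = concentration required for 50% inhibition of growth. Definition used: TGI = concentration required for complete inhibition of growth.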
Test system: NCI-H322M lung
Assay: DTP human tumour cell line panel, 48 h

Row | Structure (SMILES) | TGI | GI50
1 | CNS(=O)(=O)NNS(=O)(=O)c1ccc(Br)cc1 | > 100 µM | –
2 | O=S1(=O)Cc2ccc3c4c2-c2c(ccc5ccc(c-4c25)CS(=O)(=O)C3)C1 | > 100 µM | –
3 | COc1cc2c(OC)cc1CSCc1sc(C)c(c1Br)CSC2 | > 100 µM | –
4 | CCCCCCCCCCCCC/C=C/[C@@H](O)[C@H](COC1OC(CO)C(OC2OC(CO)C(O)C(OC3(C(=O)O)CC(O)C(NC(C)=O)C(C(O)C(O)CO)O3)C2O)C(O)C1O)N=[N+]=[N-] (stereo not given in full) | > 100 µM | –
5 | O=C(Nc1ccc(F)cc1)c1cc(S(=O)(=O)Nc2nc3ccccc3o2)c(SCc2ccccc2)cc1Cl | 25.5 µM | 12.8 µM
6 | O=C(c1cccs1)N(C(=O)N1CCN(c2ccccc2)CC1)S(=O)(=O)c1ccccc1 | > 100 µM | –
7 | Oc1cc(O)cc(-c2nc3cc(F)ccc3s2)c1 | > 100 µM | –
8 | C/C(=N/NC(=S)Nc1ccc(Cl)cc1)c1cccc(/C(C)=N\NC(=S)Nc2ccc(Cl)cc2)n1 | 7.36 µM | –
9 | COC(=O)c1ccccc1Nc1nc(-c2cccs2)nc2cc(OC)c(OC)cc12 | > 100 µM | –
10 | C=CC1C(OC2OC(CO)C(O)C(O)C2O)OC=C(C(=O)OC)C1CC1CC(=O)CC(CCc2ccc(O)cc2)O1 (stereo not given) | > 100 µM | –
11 | COc1c(OC(C)=O)c(OC(C)=O)cc2c1-c1ccc(SC)c(=O)cc1C(NC(C)=O)CC2 (stereo not given) | > 34.9 µM | –
12 | OCc1ccn2c1[C@@H](O)CC2 | > 100 µM | –
13 | CCCO/S(=N\S(=O)(=O)c1ccccc1)c1ccccc1[N+](=O)[O-] (stereo not given) | > 100 µM | –
14 | COC1=CC2C(c3cc4ccccc4n3S(=O)(=O)c3ccccc3)CC1CN2C(=O)OCc1ccccc1 (stereo not given) | > 100 µM | –
15 | COc1ccc(/C(Cl)=C(\C=O)c2ccc(OC)c(OC)c2)cc1 | > 100 µM | –
16 | Cc1cc(C)c(C(=O)c2nnc3ccccc3c2N)c(C)c1 | 57.5 µM | –
17 | Cc1cc(S(=O)(=O)O)c(NC(=O)C(=O)Cc2cc(=O)oc3cc(O)ccc23)cc1Cl | > 100 µM | –
18 | O=C(/C=C/c1ccc(OCc2cccc(Cl)c2)cc1)NO | 44.8 µM | –
19 | O=C(Nc1ccc(-n2ccc3c(NC(=O)c4ccccc4)nccc32)cc1)Nc1ccc(Cl)c(Cl)c1 | 6.01 µM | 2.13 µM
20 | COC(=O)C1(C(=O)OC)C/C(C)=C(/C)SCCCS1 | > 100 µM | –
21 | CC(=O)O/C(=C1\C[C@H]2[C@@H]3CC=C4C[C@@H](OC(C)=O)CC[C@]4(C)[C@H]3CC[C@]2(C)C1=O)C(F)(F)F | 46.2 µM | –
22 | CC1COC(C)(C)P(=O)(c2ccccc2)C1 (stereo not given) | > 100 µM | –
23 | Cc1cc(NS(=O)(=O)c2ccc(Nc3c4ccccc4nc4c(C(=O)N5CCN(CCO)CC5)ccc(Cl)c34)cc2)no1 | > 100 µM | –
24 | C1=C\COCc2cc(ccc2OCCN2CCCC2)Nc2nccc(n2)-c2cccc(c2)COC/1 | 5.79 µM | 1.49 µM
25 | CN(C)CCNC(=O)c1ccc2nc3c(nc2c1)C(=O)c1ccccc1-3 | > 100 µM | –
26 | CCCCCCOc1ccc(Nc2c(O)c3c(c(O)c2Cl)C(=O)C=CC3=O)cc1 | 7.04 µM | –

Row | Structure (SMILES) | TGI | GI50
27 | COc1ccc(-c2ccc(-c3ccc(C(=N)N)s3)s2)cc1 | 1.38 µM | 0.39 µM
28 | Cc1nc2sc3c(c2c(=O)[nH]1)CCCC3 | > 100 µM | –
29 | COc1ccc(O)c(C(=O)c2ccc(C(=O)N[C@H]3CCCNC[C@@H]3NC(=O)c3ccncc3)cc2)c1F | > 25 µM | 6.79 µM
30 | CCCCCC(=O)CCCCCCCC(O)CC(=O)OCC (stereo not given) | > 100 µM | –
31 | CCOP(=O)(OCC)OC1C=CC2CCC1C2 (stereo not given) | > 100 µM | –
32 | Cc1nc2ccc(NC(=S)Nc3ccccc3)cc2c(=O)n1-c1ccccc1 | > 100 µM | –
33 | CCOC(=O)C1(C/C=C/CBr)CCc2ccccc2C1=O (stereo not given) | 36.5 µM | –
34 | COc1cc2c(c(OC)c1OC)-c1ncc3cc4c(cc3c1C2)OCO4 | 59.9 µM | 17.4 µM
35 | COc1ccc(-c2coc3c4c(ccc3c2=O)OCO4)cc1OC | > 100 µM | –
36 | N=C(N)c1ccc2nc(-c3cc(CC(=O)N[C@@H](CC(=O)O)C(=O)O)cc(-c4cc(S(N)(=O)=O)ccc4O)c3O)[nH]c2c1 | > 100 µM | > 100 µM
37 | O=P1(c2ccccc2)CCCCC1 | > 100 µM | –
38 | CC(C)(S)C(N)C(=O)O (stereo not given) | 4830 µM and > 100 µM | 1360 µM
39 | Cc1c(/C=N/NC(=O)c2ccc(Cl)cc2)c(=O)n(-c2ccccc2)n1C | > 100 µM | –
40 | O=C1OCC2C1C1c3ccccc3C(O)c3ccccc3C21 (stereo not given) | > 100 µM | –
41 | O=C(N[C@@H](c1ccccc1)[C@@H](O)C(=O)OCc1ccc([N+](=O)[O-])cc1)c1ccccc1 | > 100 µM | –
42 | COc1cc(OC)c(/C=C/c2c3ccccc3cc[n+]2C)c(OC)c1 | 29 µM | 3.48 µM
43 | O=C1NP23(OCCO2)Oc2ccccc2C3(C(F)(F)F)O1 (stereo not given) | > 100 µM | –
44 | S=C1SSC2N=CC=CC12 (stereo not given) | > 100 µM | –
45 | Cc1cc(C)c(/C=C2\C(=O)Nc3ccc(NC(=O)CCCCCCC(=O)NO)cc32)[nH]1 | > 100 µM | 3.01 µM
46 | Nc1nc(Cl)c(N)c(NCC2(CO)CCCC2)n1 | > 100 µM | –
47 | Cc1nc([N+](=O)[O-])cn1CC(=N)N | > 100 µM | –
48 | Cn1c(=O)oc2cc(C(O)CN3CCN(Cc4ccccn4)CC3)c(Cl)cc21 (stereo not given) | > 100 µM | –
49 | CN(C)CC1CCC/C(=C\c2ccc(Cl)cc2)C1=O (stereo not given) | 28.5 µM | –
50 | Cc1cc2c(cc1C)C(=O)C1(C2)Cc2c(C)ccc(C)c2C1=O (stereo not given) | > 100 µM | –
51 | N#CC(OC1OC(COC2OC(CO)C(O)C(O)C2O)C(O)C(O)C1O)c1ccccc1 (stereo not given) | > 225 µM | –
52 | COc1ccc2c(c1)C(=O)OCCC2 | > 100 µM | –

Row | Structure (SMILES) | TGI | GI50
53 | c1ccc(NN=C(c2ccccn2)c2ccccn2)nc1 | > 100 µM | –
54 | OCCCNc1nccc(-c2c(-c3ccc(F)cc3)nn3cc(C(F)(F)F)ccc23)n1 | > 25 µM | > 25 µM
55 | [N-]=[N+]=Nc1cc(=O)n2c3c(cccc13)CCC2 | > 100 µM | –
56 | N#CC(C(=O)C(=O)Nc1ccc(Cl)cc1)c1ccccc1 (stereo not given) | > 100 µM | –
57 | C/C(CC(=O)Nc1cccc(Cl)c1C)=N\NC(=O)c1ccncc1 | > 100 µM | –
58 | CC1(C)CC(=O)C(C=NC(=O)c2ccncc2)=C(O)C1 | > 100 µM | –
59 | CC(C)N(CCn1c2c3ccccc3ccc2c2oc(=O)c3ccccc3c21)C(C)C | > 100 µM | –
60 | Cc1cc(C2CC(O)C(CO)O2)c(F)cc1F (stereo not given) | > 100 µM | –
61 | CC1CC[C@@]2(OC1)OC1C[C@H]3[C@@H]4CC[C@H]5CC(OC6OC(CO)C(O)C(OC7OC(CO)C(OC8OC(CO)C(O)C(OC9OC(CO)C(O)C(O)C9O)C8OC8OC(CO)C(O)C(O)C8O)C(O)C7O)C6O)[C@H](O)CC5(C)[C@H]4CCC3(C)C1[C@@H]2C (stereo not given in full) | 8.13 µM | –
62 | Cc1nn(C(=O)Cc2ccccc2)c2c1C(c1ccc(Cl)cc1)SC(N)=N2 (stereo not given) | > 100 µM | –
63 | Nc1nc(NCC2(CO)CC2)cc(=O)[nH]1 | > 100 µM | –
64 | O=C1NC(=O)C(c2c[nH]c3ccccc23)=C1c1cn(C(c2ccccc2)(c2ccccc2)c2ccccc2)cn1 | 47.2 µM | –
65 | CC(=O)O[C@H]1CCC2[C@@H]3CCC4Nc5oncc5C[C@]4(C)C3CC[C@@]21C (stereo not given in full) | > 10 µM | –
66 | N#Cc1[nH]c(=S)[nH]c1N | > 100 µM | –
67 | c1ccc2nc3c(nc2c1)sc1ccccc13 | 89 µM | –
68 | CN1C(=O)/C(=C/c2c(Cl)n(C)c3ccccc23)c2ccccc21 | 21.4 µM | 9.44 µM
69 | COCC1(CO)C(=O)C2CCN1CC2 (stereo not given) | > 100 µM | > 58.4 µM
70 | CC(C(=O)OCc1ccccc1)(c1ccco1)N1C(=O)OC(c2ccccc2)C1c1ccccc1 (stereo not given) | > 100 µM | –
71 | O=[N+]([O-])c1ccc(N2N=C(c3ccc(NCc4nc5ccccc5[nH]4)cc3)CC2c2ccco2)cc1 (stereo not given) | > 100 µM | –
72 | c1ccc2c(c1)c1c(c3ccccc32)CN2CCCC2C1 (stereo not given) | 62.4 µM | –
73 | CCN1C(=O)N(CC)C2C1NN=c1s/c(=C3\C(=O)N(CC(C)(C)C)c4ccccc43)c(=O)n12 (stereo not given) | 47.2 µM | 12.5 µM
74 | COc1ccc(CC2c3cc(OC)c(OC)cc3CC[N+]2(C)C)cc1OC (stereo not given) | > 100 µM | –
75 | O=C1NC(=NCCc2cccc(Cl)c2)S/C1=C\c1ccc2ncccc2c1 | > 25 µM | > 25 µM
76 | O=C1C=CC(=O)c2c1ccc1c3ccccc3n(-c3cccc([N+](=O)[O-])c3)c21 | > 10 µM | –
77 | CN1C(=O)CSC1=S | > 100 µM | –
78 | Ic1cccc(/C=C/CN2CCN(CCOC(c3ccccc3)c3ccccc3)CC2)c1 | 57.2 µM | –

Row | Structure (SMILES) | TGI | GI50
79 | O=C1c2ccccc2-c2c1c1ccccc1c(=O)n2CCCCl | 61.7 µM | 14 µM
80 | COC(=O)/C=C/c1c(CC=C(C)C)ncn1C | > 100 µM | –
81 | O=C(O)C1C2C=CC(C2)C1c1ccccc1 (stereo not given) | > 100 µM | –
82 | O=C(CSC1CCc2ccccc21)N/N=C/c1ccccc1O (stereo not given) | > 100 µM | 4.25 µM
83 | CCOC(=O)c1c(NC(=O)OC)c(C#N)c2n1CCCCC2 | > 100 µM | –
84 | CCCCCOc1ccc(/C=N/Nc2cc(C)nc3ccc(Br)cc23)cc1 | 3.16 µM | 1.74 µM
85 | COc1ccc(OC)c(C(Cc2ccnc3ccccc23)Cc2ccnc3ccccc23)c1 | > 10 µM | –
86 | COc1cc(O)c(C(=O)/C=C/c2ccc(O)cc2)cc1Oc1ccc(/C=C/C(=O)c2ccc(O)cc2O)cc1 | 21.4 µM | –
87 | Fc1ccc(C(=C2CCN(CCc3ccc4[nH]c(=S)[nH]c4c3)CC2)c2ccc(F)cc2)cc1 | 24.5 µM | –
88 | COc1cc2c3c(n(CCCOC(=O)C(F)(F)F)c(=O)c2cc1OC)-c1cc2c(cc1C3=O)OCO2 | – | 0.0992 µM
89 | CCC(=O)O[C@H]1CC[C@H]2[C@@H]3CCC4=C/C(=N/OC(=O)c5cccc6c(=O)c7ccccc7[nH]c56)CC[C@]4(C)[C@H]3CC[C@]12C | > 100 µM | –
90 | CC(=O)O[C@H]1CCC2[C@@H]3CCC4Nc5[nH]ncc5C[C@]4(C)C3CC[C@@]21C (stereo not given in full) | > 100 µM | –
91 | Cn1cc(C2=C(c3cccc(Br)c3)C(=O)NC2=O)c2ccccc21 | > 25 µM | > 21.2 µM
92 | COC(=O)[C@@H](C)C[C@H](Cc1ccccc1)NC(=O)c1csc([C@@H](C[C@H](C(C)C)N(C)C(=O)[C@@H](NC(=O)[C@H]2CCCCN2C)C2CCCCC2)OC(C)=O)n1 | > 25 µM | 0.000761 µM and 0.0025 µM
93 | CCCOc1ccc2sc(NC(=O)OC)nc2c1 | > 100 µM | 7.88 µM
94 | [N-]=[N+]=Nc1cc(=O)[nH]nc1-c1ccccc1 | > 100 µM | –
95 | CC(=O)Oc1ccccc1C(=O)Nc1ncc([N+](=O)[O-])s1 | > 93.1 µM | –
96 | CN(CCO)c1ccc(N2Cc3ccccc3OC3=C2C(=O)c2c(O)ccc(O)c2C3=O)cn1 | 2.44 µM | 1.06 µM
97 | CC1=CCC(C)=Nc2nc3ccccc3n21 | > 100 µM | –
98 | COC(=O)c1c(C#N)[nH]c(-c2ccsc2)c1C(=O)OC | > 100 µM | –
99 | COc1cccc2cc(C(=O)O)c(=O)oc12 | > 100 µM | –
100 | Cc1nc(-[n+]2nc(-c3ccncc3)nn2-c2ccccc2)sc1C | > 100 µM | –
101 | CC(C)C(=O)NS(=O)(=O)c1ccccc1 | > 100 µM | –
102 | COc1ccc(-n2cnn3c(=O)c4cn[nH]c4nc23)cc1 | > 10 µM | –
103 | O=C(Oc1cccnc1)c1cc2cc(CCl)ccc2oc1=O | > 100 µM | –

Reference: PubChem BioAssay (NCI)
